Measured values taken from the supplement of paper PMC3334620.
Whole data set: some 33,000 sequences, median “E-score (-0.5 to 0.5)” near -0.017, cut for the highest 2% near 0.3. Some of the results follow.

These sequences were tested against T1, Sut1 (UniProt P53032) (assay: PBM E-score (8-mer binding enrichment) (E-score (-0.5 to 0.5)); higher = stronger / more preferred TF binding; most listed sequences are background and not binding sites). Conditions: protein concentration: 200 nM; construct: GST-full length.
T1 sequence: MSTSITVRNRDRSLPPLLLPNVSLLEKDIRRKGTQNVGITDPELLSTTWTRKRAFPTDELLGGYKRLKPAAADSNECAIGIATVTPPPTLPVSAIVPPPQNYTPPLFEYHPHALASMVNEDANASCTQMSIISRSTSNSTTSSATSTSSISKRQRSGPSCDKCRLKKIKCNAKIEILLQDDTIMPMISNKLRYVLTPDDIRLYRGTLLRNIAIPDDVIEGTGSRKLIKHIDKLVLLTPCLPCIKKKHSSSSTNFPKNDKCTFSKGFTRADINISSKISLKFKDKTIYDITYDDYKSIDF
Method in brief: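 GST-tagged yeast TFs (full-length or DNA-binding domain) were made by PURExpress in vitro transcription/translation and applied at about 100-200 nM to universal all-10-mer Agilent arrays. The arrays were made double-stranded by primer extension, on fresh or once-stripped slides. Bound protein was detected with fluorescent anti-GST, and scans were normalised with masliner. Each ungapped eight-base word, pooled with its reverse complement, received an E-score (modified Wilcoxon-Mann-Whitney statistic) from the Universal PBM Analysis Suite.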

Sequence | PBM E-score
CGCTTGCC | -0.0742
CACGGACG | 0.109
CAATTAAA | 0.291
CGACGTCA | -0.126
AGTAAACC | 0.0445
AGACTATA | 0.0103
AATTTCCT | 0.104
CAGGATCC | -0.045
CCTTCAAC | 0.00395
ACGACTGG | -0.116
CCTGCCTC | -0.178
CCCGTACG | -0.0873
CGGGGCAA | -0.0211
ATCGTCAT | 0.0553
CACTAACA | -0.0229
CGTTTCAC | 0.0886
ACACGAAC | -0.0619
GAAGCCTA | -0.136
AGTTGACG | 0.139
AGTGAGCC | -0.172
GATCAAAC | -0.00328
CATCACTC | -0.153
TCAGCCCA | -0.13
CTAGAATC | -0.0101
GCTTGGCC | -0.227

Sequence | PBM E-score
CTTTAAAG | 0.0105
CATGTCAG | -0.193
CTGTCACC | -0.181
AAACGAGG | -0.146
ACCGCTAG | -0.21
CTAGGTAA | 0.00352
AACTTGTC | 0.116
CAGTAGCG | -0.231
TAACTCGA | 0.164
ACACGTGA | -0.0894
TATATTAA | 0.315
ACTGCGAC | 0.114
CACCTGCC | -0.335
ACAGAATC | 0.019
AGATGTAT | 0.108
AAAGGAGT | 0.162
ACCTGGTG | -0.129
GATGTACA | 0.0869
GACTGAAC | -0.116
CGTCAGGA | -0.17
AATCGCGG | 0.141
GGTCCAAC | -0.179
ATCGAGGC | -0.138
AATGGATA | 0.11
CAACGATG | -0.069

Sequence | PBM E-score
GATGACAC | -0.117
AACTTTCG | 0.0491
ACGCCCGC | -0.236
GTTCAGCA | -0.0537
GTGGGCCA | -0.0846
CATCGTCA | -0.0747
AGGAAAAG | 0.18
CCCTCTGA | -0.182
GTCTGTCA | -0.0272
CTCTAGAG | 0.0888
ACTGTTAA | 0.197
AAAAAGTA | 0.125
CCCTTTAC | 0.0371
AACAGTAA | 0.146
AATCTGCG | 0.0657
ACTAGAGT | -0.00201
ACAGCTCT | -0.31
ACCGCGGT | -0.187
AGGTAGAT | -0.114
ATATATCC | 0.244
CCCTTCCG | 0.0394
CATTAGGA | -0.0109
GAAGACTC | 0.111
TATTAAAA | 0.287
GGTCGTAC | -0.221

Sequence | PBM E-score
GGGTGGAA | -0.0472
GTGCTGAA | -0.0394
ACCGACGA | -0.0025
GTCCCGAC | -0.119
TACCAGTA | 0.0745
ATATCGGC | -0.0245
CTATCCTC | -0.0176
GGAAGTAC | -0.0238
CATGGGCC | -0.0383
GACGTCGC | -0.226
CAAGGTTC | 0.0213
CCCAACTC | 0.204
GACAAGAA | 0.209
AAAACCTT | 0.184
CCGAGATC | 0.213
CAGAACCA | -0.028
AAAAGATG | 0.0556
GATCGTAA | 0.00877
ACGCATTG | -0.229
CTGCAAAA | 0.0749
CGCCAGAG | -0.255
ATTAGAAT | 0.105
AACGCGAT | -0.0947
ATTACAGC | 0.0137
CAAGGATC | 0.0407

Sequence | PBM E-score
CCCGGCAG | -0.0403
GACCTCGA | -0.0391
ATCCGTGA | -0.119
ATCTAAGG | -0.057
ACCTAACG | -0.0982
ATGCGTGG | -0.17
ACTAGATC | -0.117
TCGCTTAA | 0.0457
AAAGTGTA | 0.0802
TTGAACAA | -0.00206
AGACCGTA | -0.0895
CTCACTTA | 0.0144
ATGACGCG | -0.0417
AACTGTCC | 0.00966
CACGTGGA | -0.201
CGCCCTAG | -0.161
ATTTATCA | 0.229
AGGCCCGA | -0.118
TGATTGAA | 0.112
CTCGTAAA | -0.0229
CATGTTTC | 0.0985
ACGAAAGA | 0.159
GGAACGCA | -0.154
ATAACGAG | 0.151
GGACTCAA | 0.172

Sequence | PBM E-score
CACTTAGA | 0.0399
CGTTACAA | 0.0868
GTAACAGA | 0.147
AGTTAGCG | 0.0376
CCCGCGAC | -0.257
CAAGCCCC | -0.159
GAGCGGCA | -0.195
ACTAGCTG | -0.273
AACCCAAA | 0.0168
ATATAAAT | 0.325
CAGTGACA | -0.0609
TGTTGCAA | 0.278
ATAGAGAG | -0.172
TATGAGCA | -0.0712
CCATGCAC | -0.0329
GGGGACCA | -0.328
AGTGTTCC | 0.105
CACCGAGC | 0.128
GGTATACC | 0.00067
ACTTTTCC | 0.27
GCTGAGAA | 0.00666
AGCATGTA | -0.0201
CGTTATTC | 0.0871
GAATTCGA | 0.0801
CTTATGAC | 0.0351

Sequence | PBM E-score
AATCCTGT | 0.00205
CGATTATA | 0.125
AGCGGTGG | -0.0886
CAAGCTCA | -0.164
AAGTCCTC | 0.0867
CGAAGTTA | 0.0358
CTCTCTTA | 0.0682
AAAGCGGC | 0.184
AGTGCTCA | -0.105
AGACGTGG | -0.203
ACTTTAAA | 0.269
GAGCCAGC | -0.262
GTGTTCAA | 0.127
CGAATAAC | 0.13
ACCGAGGT | 0.0263
CCCCCGAC | -0.288
CCTCACCG | -0.113
GAAATACA | 0.0868
GTGGTCAA | -0.0216
CGAGATAC | 0.2
AGTGGGCA | -0.0542
AGTCCACC | -0.0698
